Among the data in article PMC5105952 are binding values, retold here.

Experiment [1] addresses T1, Ver (Drosophila melanogaster) (UniProt Q9VTZ2).
T1 sequence: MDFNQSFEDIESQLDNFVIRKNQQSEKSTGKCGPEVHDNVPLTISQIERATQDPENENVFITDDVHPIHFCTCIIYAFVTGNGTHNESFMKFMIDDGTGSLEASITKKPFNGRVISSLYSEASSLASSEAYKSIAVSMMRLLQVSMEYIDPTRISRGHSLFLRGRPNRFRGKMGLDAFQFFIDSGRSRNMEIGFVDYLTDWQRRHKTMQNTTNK
The experiment in a line: two-hybrid; LacZ-based yeast two-hybrid, vectors and strains as in ref. 32.

Experiment [2] has as its target T2, Ver D96G (Drosophila melanogaster) (UniProt Q9VTZ2).
T2 sequence: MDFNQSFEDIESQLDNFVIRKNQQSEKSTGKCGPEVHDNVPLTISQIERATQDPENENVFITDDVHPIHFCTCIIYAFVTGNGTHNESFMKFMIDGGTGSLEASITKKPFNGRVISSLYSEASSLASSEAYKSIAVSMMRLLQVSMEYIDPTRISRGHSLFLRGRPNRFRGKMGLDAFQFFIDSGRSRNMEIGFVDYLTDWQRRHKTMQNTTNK
Described as above.

For experiment [3], the target named is T3, Ver L101P (Drosophila melanogaster) (UniProt Q9VTZ2).
T3 sequence: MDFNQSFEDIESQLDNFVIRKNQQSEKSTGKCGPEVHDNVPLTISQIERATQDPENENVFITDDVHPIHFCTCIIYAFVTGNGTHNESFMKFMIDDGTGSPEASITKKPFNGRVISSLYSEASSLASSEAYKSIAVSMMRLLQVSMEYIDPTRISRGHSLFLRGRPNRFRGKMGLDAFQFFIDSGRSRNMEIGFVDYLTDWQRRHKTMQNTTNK
The experiment is described as above.

Experiment [4] concerns the target T4, Ver L162P (Drosophila melanogaster) (UniProt Q9VTZ2).
T4 sequence: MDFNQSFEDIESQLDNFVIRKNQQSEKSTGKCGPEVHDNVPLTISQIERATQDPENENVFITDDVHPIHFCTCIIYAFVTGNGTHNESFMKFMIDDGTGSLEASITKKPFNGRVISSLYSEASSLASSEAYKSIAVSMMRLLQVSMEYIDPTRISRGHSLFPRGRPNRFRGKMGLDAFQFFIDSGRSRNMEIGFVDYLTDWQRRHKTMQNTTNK
The experiment is described as above.

For experiment [5], the target named is T1, Ver (Drosophila melanogaster). The experiment in a line: two-hybrid; yeast three-hybrid: Tea fragments on the Gal4 activation domain, either Ver or Moi on the LexA DNA-binding domain, the other of Moi or Ver as a third stand-alone protein.
Experiment [6] deals with T5, 3xFLAG-Ver (Drosophila melanogaster) (UniProt Q9VTZ2).
T5 sequence: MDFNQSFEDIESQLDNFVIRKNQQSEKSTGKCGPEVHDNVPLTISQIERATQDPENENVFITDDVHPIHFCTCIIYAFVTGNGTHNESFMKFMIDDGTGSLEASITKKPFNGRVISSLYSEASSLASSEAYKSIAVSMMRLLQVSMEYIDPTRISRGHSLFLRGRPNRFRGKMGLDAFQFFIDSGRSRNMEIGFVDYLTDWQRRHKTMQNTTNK
As to the kind of experiment: co-IP; single anti-FLAG purification from insect cells co-expressing 3xFLAG-Ver and V5-Moi, with or without 3xHA-Tea (baculovirus).

These are yes or no findings as the source states them, for the method shown. For some of these results: Binding seen in cells or lysates may run through a third protein. Some results given as binding are weak or reduced against the parent protein; the word gives no strength. For some of these results: Sequences can lack the tags named with a protein.

B1: Moi (protein, UniProt B7Z0L8 1-178)
chain: MSLVPEASTSRAPKYCYFFKTLLVEELELETSYHNLHYGQCALIGRLAFKANQYRLENVRVKCLPKKYSLGEGTVSLLILGLTHDKVVENRVSTGRYCIVRGEVVLHNVQHPKGAKLTAGGVYDKINSLSNDPLAQKQYLSALLATYRPAIDLWYIQVIDRAEDLLTRRLEMRSLIEK
B1: the binding entry in experiment [1] was “binds”; in experiment [2], “no binding”; in experiment [3] it was “no binding”; in experiment [4], “no binding”; in experiment [5], “binds”.

B2: V5-Moi (protein, UniProt B7Z0L8 1-178)
chain: MSLVPEASTSRAPKYCYFFKTLLVEELELETSYHNLHYGQCALIGRLAFKANQYRLENVRVKCLPKKYSLGEGTVSLLILGLTHDKVVENRVSTGRYCIVRGEVVLHNVQHPKGAKLTAGGVYDKINSLSNDPLAQKQYLSALLATYRPAIDLWYIQVIDRAEDLLTRRLEMRSLIEK
On to B2, for which, in experiment [6], the binding result is recorded as “binds”.

B3: Moi G45R (protein, UniProt B7Z0L8 1-178)
chain: MSLVPEASTSRAPKYCYFFKTLLVEELELETSYHNLHYGQCALIRRLAFKANQYRLENVRVKCLPKKYSLGEGTVSLLILGLTHDKVVENRVSTGRYCIVRGEVVLHNVQHPKGAKLTAGGVYDKINSLSNDPLAQKQYLSALLATYRPAIDLWYIQVIDRAEDLLTRRLEMRSLIEK
With B3, the binding entry in experiment [1] is “no binding”.
